From the supplement of paper PMC11417369
The other results are listed elsewhere or left out.

System: PfHDP1 homeodomain (GST-tagged)
Assay: gcPBM binding intensity (ln(normalized median fluorescence intensity)); higher = stronger DNA binding
Summary of the method: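 The binding buffer was 1× PBS containing 1% milk, 0.2 mg/ml BSA, 0.5% salmon testes DNA and 0.03% Triton X-100. In it, GST-tagged P. falciparum DNA-binding domains expressed in E. coli were applied for 1 h to an Agilent 4 × 180k array of primer-extended double-stranded 36-bp intergenic genomic probes plus negative controls. Binding intensity, read with Alexa488 anti-GST antibody and a 488 nm scan, is the highest Masliner-normalised natural-log median intensity across replicate spots of either probe orientation.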

| Sequence | gcPBM binding intensity (ln) |
| --- | --- |
| AGGTAGAAAAAAGACACACACATTAGATATTTATAT [CACACA_site6313] | 6.64 |
| GTTCATAAATTAAACACACACACACGGCTGGATACC [CACACA_site7545] | 6.72 |
| GTAAAACAGATTTACAGTACACATGTGTTATGTTTT [XGTACX_site2933] | 6.64 |
| TTTATATATAAATAATGTACAAAAAATTTTAAAAAG [XGTACX_site7990] | 7.03 |
| ATAAAAATATTTGAATGTACTTATAAGATATATATA [XGTACX_site4257] | 6.76 |
| TTTTTATATTTTATTATTTTTTTTATATAAAAAATT [CACACA_negctrl_site601] | 6.55 |
| TATACGTATTACAGAGTGCAATAAACAGTATATATT | 8.55 |
| TGTATAAACTTTACGTGTACATGAATAATCTATAAT [XGTACX_site3801] | 6.49 |
| TAAATACATCTATGCACACAAAAAAATATATATTTT [CACACA_site5027] | 9.24 |
| TTTATAAATTCTCTTTTTAAAAAATATTTTTATACT [CACACA_negctrl_site427] | 6.4 |
| TAATCATTTTAGCTTACACACAAAATTTTGTTATAA [CACACA_site2939] | 6.59 |
| AAAATAATTTTATAAGTGCAAAATAGCTTATTTATA | 8.95 |
| TTGTACAAAAATAATGCACACTATATCAAGTTTTTT [CACACA_site5898] | 10.3 |
| AAAATGGAACTAGGAATAATATAAGAAGATAAAAGG [XGTACX_negctrl_site347] | 6.82 |
| TATATATGTGTATAGAGTACACGTTTTTTTTAATAT [XGTACX_site3128] | 6.3 |
| AAAAACCTGAACTGTGCATGTCATACTTTTACTTTT [TGCATGCA_site73] | 7.02 |
| TTAGGATTGAAGAGTTGTACATACCTCTTATTTGTT [XGTACX_site1376] | 6.22 |
| TATAAAATGTAATCTGAACACACATATTTTTTTAAT [CACACA_site8521] | 6.16 |
| ATCATATATTATTTATGTACTTATTTATAATAATAT [XGTACX_site8257] | 6.47 |

| Sequence | gcPBM binding intensity (ln) |
| --- | --- |
| TTAAAATTATAATACGTACACACCTTATCTTTTTGG [CACACA_site278] | 6.64 |
| ATATATAACGGGCACACACACATTTACGTATGAATA [CACACA_site1833] | 6.97 |
| GGCGTATGTGTATATACACACCCACGTATATATATA [CACACA_site9046] | 8.02 |
| TGTTGTTTTATGTTGTATTGTAATATATTATATTAT [XGTACX_negctrl_site46] | 7.16 |
| AAATATATTTCTTTTTTTCTTATTATTAATTTGCTT [CACACA_negctrl_site1483] | 6.23 |
| TATAGATTTATATACACATGCATTTTGGTAAAGAAA [TGCATGCA_site953] | 6.59 |
| TTTATTTATTATTATGTACACACTATATTAAAACAT [CACACA_site700] | 6.62 |
| TTATAATAAATATTCATATGTTCAAATATATATATA [CACACA_negctrl_site624] | 8.42 |
| ATTGTAAGTAGACACACACACATATAGATGTATATA [CACACA_site6463] | 6.81 |
| TATTTTTTTAATAACTGTACTTTTTTGTCAAATGGA [XGTACX_site4179] | 6.18 |
| AATGTTTTTGTGAGATGTATAAATTTTATTTTATTT [XGTACX_negctrl_site413] | 6.5 |
| AAAAAAATAATGTACACACACATATAGGTTTATATA [CACACA_site192] | 6.48 |
| TAAGTTTTGTTCTTTTGTACATATAAGTATAGATCG [XGTACX_site4735] | 6.4 |
| TTGGGCATAATGTCATGTACACAAATAATTCTTTAT [XGTACX_site861] | 6.47 |
| ATATATGGAGCTTATACACACTTTTATATTTTAACA [CACACA_site7757] | 6.97 |
| AAACGTGTGTATAATAGTACATAATTATAACGTAAT [XGTACX_site421] | 6.77 |
| AAATTTGGCAAACACACACACACACCCACAGAGACA [CACACA_site4490] | 6.82 |
| CGTATTTTTGGACATGCATGTACAAATAATCTTATG [TGCATGCA_site973] | 6.51 |
| TATATAACCTATAGCACACATATATAATATATATTA [CACACA_site1834] | 6.94 |

| Sequence | gcPBM binding intensity (ln) |
| --- | --- |
| TTCTATTCAAATGCAAAATTATTAAATAAAAAATAA [GTGCAC_negctrl_site708] | 6.75 |
| TTATTTTTTTTAAATTGTACAAGGAACAGTGAAAAA [XGTACX_site4380] | 7.03 |
| TAAATGTCTTCAATGAAGTGGAAATGCTGTTATATA [CACACA_negctrl_site1155] | 6.4 |
| TTTGTGTGTACGCGTGTGCACATTTTTTTTTTTTTT | 9.58 |
| ATGTATGAATTACATAGTACATAAGAAAAAATGAAG [XGTACX_site5942] | 7.08 |
| GTTTTCATCCAAAAAAGTACATTTATTTTTATACGA [XGTACX_site1039] | 6.31 |
| GTAGTGGTTGAATATACACACATATATAAATAAATA [CACACA_site7282] | 6.58 |
| AAATATAAAGTGCACACACACAAAAAAAGAAAAAAA [CACACA_site6452] | 8.92 |
| GGAAAATCTTTATAATGTACATTATGATTATATAAT [XGTACX_site6256] | 6.72 |
| TATAAATTAAAATGTGTGCACTAAATTGAAATAGAA | 10.6 |
| ATATATATATATAATAGTACATATATTTTTATTGGT [XGTACX_site711] | 8.97 |
| TAACCTAAAATAACTACACACACATAAAAAAAAAAA [CACACA_site8807] | 6.58 |
| ATATTTTTTACAAATTGTACATTTTTACAATTATTA [XGTACX_site7496] | 6.47 |
| TCACTTAATATTTAATGTACATAAGGTTCTTGTGCC [XGTACX_site1822] | 6.52 |
| TTAAAATATGAATAATGTACAAGAAATTTTATTAAT [XGTACX_site6314] | 6.48 |
| TTAACTTAAGGAGAGTGTACAAATAATAAAATATCT [XGTACX_site4118] | 6.57 |
| ATTATTACATTTTTATGTACATATCAAATTTATACA [XGTACX_site7332] | 6.42 |
| AAAAAAAATTTATGGGGTACATATTATAATATTATA [XGTACX_site3395] | 6.6 |
| TTATATAACATTATTTGTACATATAAAATATGGATG [XGTACX_site8526] | 6.15 |
